Experimental data: the supplement of paper PMC9334596
Several values for one entry are separate records, joined by “and”; a condition that tells them apart may be missing. Equal entries are not always repeated. Whole data set: some 5,300 compounds, median “PER2::LUC luminescence relative to vehicle control” near 0.96, cut for the highest 2% near 1.3. The list shows a part of the results.

System: mPer2Luc MEF
Experiment: PER2::LUC luminescence relative to vehicle control (fold of vehicle); higher = higher PER2::LUC reporter signal
Conditions: 10 µM
How it was run: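 In 384-well plates, ~3000 mPer2Luc reporter mouse embryonic fibroblasts per well were cultured in DMEM with 10% FBS at 37 °C and 5% CO2 for 48 h before compounds from commercial libraries were added at 10 μM. ONE-Glo luciferase readings were taken 24 h and 30 h after treatment. Each value is PER2::LUC luminescence given as fold of vehicle control.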

Row | SMILES | PER2::LUC luminescence (time after treatment 24 h) | PER2::LUC luminescence (time after treatment 30 h)
1 | OC[C@H]1O[C@@H](Oc2ccc(O)cc2)[C@H](O)[C@@H](O)[C@@H]1O | 1.02 | 0.876
2 | COc1cc(/C=C/C(=O)O)cc(OC)c1OC | 0.994 | 0.955
3 | CS(=O)(=O)c1cc(F)cc2c3c(n(Cc4ccc(Cl)cc4)c12)[C@@H](CC(=O)O)CC3 | 1.13 | 1.09
4 | NCCCCCCCCCCN | 1.04 | 0.932
5 | CC(Nc1ccc(-c2nn[nH]n2)cc1)C(=O)O (racemic) | 0.971 | 0.96
6 | N#Cc1c(N)nc(SCc2csc(-c3ccc(Cl)cc3)n2)c(C#N)c1-c1ccc(OCCO)cc1 | 1.02 | 0.984
7 | N=C(N)NCC1COC2(CCCCC2)O1 (stereo not given) | 0.966 | 0.973
8 | CC1(C)OC(=O)NC1=O | 0.929 | 0.857
9 | Nc1ccc(C(=O)NCC(=O)O)cc1 | 1.04 and 0.744 | 0.909 and 1.14
10 | COc1ccc(NS(=O)(=O)c2ccc(N)cc2)nn1 | 0.945 | 0.729
11 | Cn1ncc(Cl)c1-c1cc(C(=O)N[C@H](CN)Cc2ccc(F)c(F)c2)oc1Cl | 0.189 | 0.202
12 | Cn1nnnc1SCC1=C(C(=O)O)N2C(=O)[C@@H](NC(=O)[C@H](O)c3ccccc3)[C@H]2SC1 | 1.07 | 0.988
13 | Fc1ccc(-c2nc3n(c2-c2ccncc2)CCS3)cc1 | 0.645 | 0.717
14 | O=c1c(-c2ccc(O)cc2)coc2cc(O[C@@H]3O[C@H](CO)[C@@H](O)[C@H](O)[C@H]3O)cc(O)c12 | 1.3 | 1.32
15 | CCC[C@H](N[C@@H](C)C(=O)N1[C@H](C(=O)O)C[C@@H]2CCCC[C@@H]21)C(=O)OCC | 0.982 | 0.772
16 | N=C(N)NC(=N)N1CCOCC1 | 1.25 | 0.999
17 | O=C(Nc1ncc([N+](=O)[O-])s1)c1ccccc1O | 1.45 | 1.73
18 | NC(C(=O)O)c1cc(O)cc(O)c1 (racemic) | 0.964 | 0.884
19 | CCOC(=O)c1ccc(OCCC2CCN(c3ccc(C)nn3)CC2)cc1 | 1.06 | 0.939
20 | NC(C(=O)O)C(O)C(=O)O (stereo not given) | 0.976 | 0.948
21 | Cc1ncc(CSSCc2cnc(C)c(O)c2CO)c(CO)c1O | 1.01 and 0.938 | 0.875 and 0.905
22 | CC1NC(=O)NC1=O (stereo not given) | 0.946 | 0.877
23 | CC(=O)Oc1cccc2c1C(=O)c1c(OC(C)=O)cc(C(=O)O)cc1C2=O | 1.06 and 0.964 | 1.02 and 0.931
24 | CCN(CC)Cc1ccc2cc(COC(=O)Nc3ccc(C(=O)NO)cc3)ccc2c1 | 0.53 and 0.352 | 0.441 and 0.278
25 | OC[C@H]1O[C@H](O[C@H]2C(O)[C@@H](O)[C@@H](OC[C@H]3O[C@@H]4O[C@H]5[C@H](O)[C@@H](O)[C@@H](O[C@H]6[C@H](O)[C@@H](O)[C@@H](O[C@H]7[C@H](O)[C@@H](O)[C@@H](O[C@H]8[C@H](O)[C@@H](O)[C@@H](O[C@H]9[C@H](O)[C@@H](O)[C@@H](O[C@H]%10[C@H](O)[C@@H](O)[C@@H](O[C@H]3[C@H](O)[C@H]4O)O[C@@H]%10CO)O[C@@H]9CO)O[C@@H]8CO)O[C@@H]7CO)O[C@@H]6CO)O[C@@H]5CO)O[C@@H]2CO)[C@H](O)[C@@H](O)[C@@H]1O (stereo not given in full) | 1.08 | 1.06
26 | O=C(O)[C@H](Cc1ccc(Nc2nccc3ccncc23)cc1)NC1=C(Br)C(=O)C12CCCCC2 | 0.88 | 0.86
27 | CC(C)(C#N)c1ccc(N2C(=O)OCc3cnc4ccc(-c5cnc6ccccc6c5)cc4c32)cc1 | 0.705 | 0.655
28 | CN(C)c1ccc(C(c2ccc(N(C)C)cc2)c2cc([N+](=O)[O-])ccc2Cl)cc1 | 0.874 | 0.882

Row | SMILES | PER2::LUC luminescence (time after treatment 24 h) | PER2::LUC luminescence (time after treatment 30 h)
29 | C=C1C[C@H]2[C@@H]3C=C(C)C4=CC(=O)CC[C@]4(C)[C@H]3CC[C@]2(C)[C@@]1(OC(C)=O)C(C)=O | 0.564 | 0.916
30 | N[C@H]1C(O)O[C@H](CO)[C@@H](O)[C@@H]1O (stereo not given in full) | 0.953 and 0.831 | 1.02 and 0.963
31 | O=c1oc(Cl)c(Cl)c2ccccc12 | 0.911 | 1.03
32 | COc1ccc(-c2cc(=O)c3c(O)cc(O)cc3o2)cc1 | 1.41 | 1.56
33 | CC(=O)N[C@@H](CC(=O)N[C@@H](CCC(=O)O)C(=O)O)C(=O)O | 1.06 | 1
34 | c1ccc(C(NCCNC(c2ccccc2)c2ccccc2)c2ccccc2)cc1 | 0.763 | 0.922
35 | Cc1ccc(S(=O)(=O)NC(=O)NN2CC3CCCC3C2)cc1 (stereo not given) | 0.44 | 0.625
36 | CCC(C)C(C(=O)OCC[N+](C)(CC)CC)c1ccccc1 (stereo not given) | 0.922 | 1.06
37 | O=c1c(O)cccc2cc(O)c(O)c(O)c12 | 1.06 | 1.04
38 | O=c1cc(-c2ccccc2)oc2cc(O)c(O)cc12 | 1.41 | 1.47
39 | CCN(CC)CCOc1ccc(Cc2ccccc2)cc1 | 0.811 | 0.893
40 | Cc1cc(Cn2cnc3c2CC(C(=O)O)N(C(=O)C(c2ccccc2)c2ccccc2)C3)ccc1N(C)C (stereo not given) | 0.969 | 0.912
41 | NC(N)=NCCC[C@H](NC(=O)c1sccc1NS(=O)(=O)c1cccc2nsnc12)C(=O)O | 1.07 | 1.1
42 | O=c1c(O)c(-c2cc(O)c(O)c(O)c2)oc2cc(O)cc(O)c12 | 1.22 | 1.34
43 | Nc1nc(=O)c2[nH]c(=O)cnc2[nH]1 | 1.08 | 1.03
44 | N#CC(C#N)=C(N)/C(C#N)=C/c1ccc(O)cc1 | 0.999 | 1.13
45 | CCCCS(=O)(=O)N[C@@H](Cc1ccc(OCCCCC2CCNCC2)cc1)C(=O)O | 1.03 | 1.04
46 | O=C(Nc1cc(C(F)(F)F)ccc1N1CCCCC1)c1ccncc1 | 0.491 | 0.365
47 | NCCS(=O)(=O)O | 0.937 | 0.891
48 | COc1cc2nc(N3CCN(C(=O)c4ccco4)CC3)nc(N)c2cc1OC | 0.855 and 0.841 | 0.875 and 0.845
49 | CCn1cc(C(=O)O)c(=O)c2cnc(N3CCNCC3)nc21 | 0.862 | 0.974
50 | Cc1ccc(NC(=O)c2ccc(CN3CCN(C)CC3)cc2)cc1Nc1nc(-c2cccnc2)cs1 | 0.401 | 0.398
51 | COc1nc(C)nc(Cl)c1NC1=NCCN1 | 1.13 and 0.865 | 0.842 and 0.844
52 | CCCC[C@@H](C=O)NC(=O)[C@H](CC(C)C)NC(=O)OCc1ccccc1 | 1.21 | 1.18
53 | O=C(CCCN1CC=C(n2c(=O)[nH]c3ccccc32)CC1)c1ccc(F)cc1 | 0.97 | 1.02
54 | Cc1ccc(CCCO)c(NCc2ccc3nc(NCCCN4CCOCC4)n(Cc4nc(C)ccc4O)c3c2)c1 | 0.711 | 0.678
55 | CCN(CC)CCNC(=O)c1cc(S(C)(=O)=O)ccc1OC | 0.984 | 0.88
